Laboratory results reported in the supplement of paper PMC4604168 (melanoma cell lines).
The other results are listed elsewhere or left out. Single values are uncertain, as repeats are few or missing.

How the values were obtained:
Assay in all cases: cell count relative to DMSO control; melanoma cells; higher = more viable cells
Settings in all cases: library dose: low library concentration; 72 h
MZ2-MEL = system: MZ2-MEL
MeWo = system: MeWo
RPMI7951 = system: RPMI7951
RVH-421 = system: RVH-421
SkMel28 = system: SkMel28
SkMel2 = system: SkMel2
SkMel30 = system: SkMel30
SkMel5 = system: SkMel5
UACC257 = system: UACC257
UACC62 = system: UACC62
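Also: cell number obtained by counting DAPI-stained nuclei in high-throughput microscope images with image analysis software, screen run in 1,536-well plates.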

SMILES	cell count (MZ2-MEL)	cell count (MeWo)	cell count (RPMI7951)	cell count (RVH-421)	cell count (SkMel28)	cell count (SkMel2)	cell count (SkMel30)	cell count (SkMel5)	cell count (UACC257)	cell count (UACC62)
OCc1c[nH]c2ccccc12 [Indole-3-carbinol] + O=C(O)c1ccc(-c2c[nH]c3ncc(-c4ccccc4)cc23)cc1C1CCCC1 [GSK650394] (first compound 0.8 µM, partner dose 0.16 µM)	97%	91.3%	105%	120%	81.1%	101%	102%	89.2%	107%	85.1%
Nc1cccc2c1CN(C1CCC(=O)NC1=O)C2=O (stereo not given) [lenalidomide] + OCCn1cc(-c2cnc3nnn(Cc4ccc5ncccc5c4)c3n2)cn1 [PF04217903] (first compound 1 µM, partner dose 1 µM)	104%	95.3%	94%	99.8%	112%	100%	110%	89.1%	97%	102%
Cn1c(Nc2ccc(C(F)(F)F)cc2)nc2cc(Oc3ccnc(-c4ncc(C(F)(F)F)[nH]4)c3)ccc21 + C[C@@H]1CCN(C(=O)CC#N)C[C@@H]1N(C)c1ncnc2[nH]ccc12 [CP690550] (first compound 0.08 µM, partner dose 1 µM)	84.3%	73.6%	62.6%	66.8%	63.3%	91.7%	60.5%	75.7%	39.8%	57.2%
OCc1c[nH]c2ccccc12 [Indole-3-carbinol] + c1cc(-c2cnn3cc(-c4ccc(OCCN5CCCCC5)cc4)cnc23)ccn1 [Dorsomorphin] (first compound 0.8 µM, partner dose 0.4 µM)	97.4%	104%	94%	97.1%	95.6%	115%	80.1%	95.4%	86.1%	92.8%
Cn1c(Nc2ccc(C(F)(F)F)cc2)nc2cc(Oc3ccnc(-c4ncc(C(F)(F)F)[nH]4)c3)ccc21 + Cn1cncc1[C@@](N)(c1ccc(Cl)cc1)c1ccc2c(c1)c(-c1cccc(Cl)c1)cc(=O)n2C [tipifarnib] (first compound 0.08 µM, partner dose 0.01 µM)	78.9%	58.8%	56.9%	58.5%	65%	56%	56.8%	77.8%	35%	44.9%
O=C(CCCCCCC(=O)Nc1ccccc1)NO [vorinostat] + C=CCn1c(=O)c2cnc(Nc3ccc(N4CCN(C)CC4)cc3)nc2n1-c1cccc(C(C)(C)O)n1 [MK1775] (first compound 0.08 µM, partner dose 0.02 µM)	113%	100%	106%	102%	77.7%	96.4%	98.3%	81.8%	101%	93%
OCc1c[nH]c2ccccc12 [Indole-3-carbinol] + O=C(Nc1cccc(Cl)c1)Nc1ncc(CCNc2ncnc3ccsc23)s1 [SNS314] (first compound 0.8 µM, partner dose 0.0008 µM)	105%	107%	124%	104%	90.4%	114%	136%	108%	86.9%	87.8%
OCc1c[nH]c2ccccc12 [Indole-3-carbinol] + COc1cc2c(Oc3ccc4[nH]c(C)cc4c3F)ncnc2cc1OCCCN1CCCC1 [cediranib] (first compound 0.8 µM, partner dose 0.4 µM)	97.8%	91.8%	103%	79.5%	94%	91.9%	104%	95.6%	83.7%	87.9%
OCc1c[nH]c2ccccc12 [Indole-3-carbinol] + O=C(O)C(=O)Nc1sc2c(c1C(=O)O)CCNC2 [TCS401] (first compound 0.8 µM, partner dose 1.66667 µM)	99.2%	95.8%	112%	84.3%	125%	95.2%	85.4%	86%	95.9%	86.1%
Cn1c(Nc2ccc(C(F)(F)F)cc2)nc2cc(Oc3ccnc(-c4ncc(C(F)(F)F)[nH]4)c3)ccc21 + OCCn1cc(-c2cnc3nnn(Cc4ccc5ncccc5c4)c3n2)cn1 [PF04217903] (first compound 0.08 µM, partner dose 1 µM)	90.3%	75.7%	61.7%	84.4%	78.4%	96%	42.1%	83.8%	64.6%	67.8%
OCc1c[nH]c2ccccc12 [Indole-3-carbinol] + Oc1nc(-c2ccc(C(F)(F)F)cc2)nc2c1CSCC2 [XAV939] (first compound 0.8 µM, partner dose 2 µM)	101%	110%	86.2%	127%	101%	93%	108%	83.9%	89.7%	103%
Clc1ccc(Nc2nnc(Cc3ccncc3)c3ccccc23)cc1 [vatalanib] + COc1cc2c(Oc3ccc4[nH]c(C)cc4c3F)ncnc2cc1OCCCN1CCCC1 [cediranib] (first compound 2 µM, partner dose 0.4 µM)	95.5%	103%	94.4%	87.2%	93.3%	90.8%	117%	97.8%	97.7%	90.1%
OCc1c[nH]c2ccccc12 [Indole-3-carbinol] + Cn1cc(/C=C2\C(=O)Nc3cccnc32)c2ccccc21 [GW441756] (first compound 0.8 µM, partner dose 0.4 µM)	98.9%	105%	97.3%	105%	81.3%	113%	84.6%	85.6%	79.6%	90.3%
O=C(CCCCCCC(=O)Nc1ccccc1)NO [vorinostat] + Cn1cncc1[C@@](N)(c1ccc(Cl)cc1)c1ccc2c(c1)c(-c1cccc(Cl)c1)cc(=O)n2C [tipifarnib] (first compound 0.08 µM, partner dose 0.01 µM)	99.1%	94.4%	90.3%	90%	82.5%	79.8%	108%	85.8%	76.5%	77.4%
C#Cc1cccc(Nc2ncnc3cc(OCCOC)c(OCCOC)cc23)c1 [erlotinib] + COc1cc2c(Oc3ccc4[nH]c(C)cc4c3F)ncnc2cc1OCCCN1CCCC1 [cediranib] (first compound 0.8 µM, partner dose 0.4 µM)	103%	95.2%	121%	134%	80.7%	109%	87.3%	101%	107%	90.8%
COCC[n+]1c2c(n(Cc3cnccn3)c1C)C(=O)c1ccccc1C2=O + Cc1cc(N2CCOCC2)cc2[nH]c(-c3c(NC[C@@H](O)c4cccc(Cl)c4)cc[nH]c3=O)nc12 [BMS536924] (first compound 0.0004 µM, partner dose 0.2 µM)	46%	82.6%	88.7%	92.2%	84.9%	66%	67.9%	57.6%	57.7%	82.5%
O=C(CCCCCCC(=O)Nc1ccccc1)NO [vorinostat] + O=C(Nc1cccc(Cl)c1)Nc1ncc(CCNc2ncnc3ccsc23)s1 [SNS314] (first compound 0.08 µM, partner dose 0.0008 µM)	99.7%	98.1%	93.2%	82.1%	82.4%	112%	112%	92.3%	93.1%	84.8%
OCc1c[nH]c2ccccc12 [Indole-3-carbinol] + CCc1ccc(CCOc2ccc(CC3SC(=O)NC3=O)cc2)nc1 [pioglitazone] (first compound 0.8 µM, partner dose 2 µM)	94.8%	96.7%	82.6%	76.3%	90.4%	92.8%	90.7%	86.5%	77.8%	88.9%
COCC[n+]1c2c(n(Cc3cnccn3)c1C)C(=O)c1ccccc1C2=O + Cn1cncc1[C@@](N)(c1ccc(Cl)cc1)c1ccc2c(c1)c(-c1cccc(Cl)c1)cc(=O)n2C [tipifarnib] (first compound 0.0004 µM, partner dose 0.01 µM)	50.7%	86.4%	79.9%	92.5%	81.4%	76.7%	81.9%	61.9%	109%	85.8%
COCC[n+]1c2c(n(Cc3cnccn3)c1C)C(=O)c1ccccc1C2=O + CC(C)(C)c1cnc(CSc2cnc(NC(=O)C3CCNCC3)s2)o1 [SNS-032] (first compound 0.0004 µM, partner dose 0.01 µM)	46.8%	91.5%	67.4%	101%	79.3%	80.5%	89.5%	68.4%	136%	76.8%
OCc1c[nH]c2ccccc12 [Indole-3-carbinol] + CN(C)S(=O)(=O)c1ccc2c(c1)/C(=C/c1cc3c([nH]1)CCCC3)C(=O)N2 [SU6656] (first compound 0.8 µM, partner dose 0.4 µM)	108%	95.9%	106%	89.5%	85%	104%	98.1%	85.6%	97.4%	90.7%
Nc1cccc2c1CN(C1CCC(=O)NC1=O)C2=O (stereo not given) [lenalidomide] + NCC(=O)Nc1ccc(-n2nc(C(F)(F)F)cc2-c2ccc3c(ccc4ccccc43)c2)cc1 [OSU03012] (first compound 1 µM, partner dose 1 µM)	92.6%	57.2%	106%	93.9%	79.2%	91.7%	50.6%	91%	94.2%	86.4%
